± gives the standard deviation of the averaged measurements. This is one part of the list.
What follows are sequences tested on PfAP2-EXP AP2 domain (GST-tagged) (assay: gcPBM binding intensity (ln(normalized median fluorescence intensity)); higher = stronger DNA binding).
Procedure, shortened: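 GST-tagged P. falciparum DNA-binding domains produced in E. coli were incubated for 1 h on an Agilent 4 × 180k array of primer-extended double-stranded 36-bp intergenic genomic probes with negative controls. Binding intensity is the highest Masliner-normalised natural-log median intensity across replicate spots of either probe orientation, with bound protein detected by Alexa488 anti-GST antibody at 488 nm.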

Sequence | gcPBM binding intensity (ln)
ATAGAAACATATTGACGTACAGTATAATAATACAGT [XGTACX_site197] | 8.72 ± 0.31
AAATCAACTTATTTTTGTACATATATTTATTATATA [XGTACX_site2925] | 8.81 ± 0.51
GAATGAAAATAAAATTGTACACATATCTATATCTAT [XGTACX_site2642] | 8.43 ± 0.3
TTTAATTAGGATAATTGTACTGAACTAAGTATATTT [XGTACX_site1871] | 8.24 ± 0.45
TATATTATATGTATTGCACACCTTCAACAACTACTT [CACACA_site8121] | 8.93 ± 0.28
AAAAAAAAAAAAAGTTGTACATTATTTTCCTAATTC [XGTACX_site7998] | 8.21 ± 0.32
ATACATATATATGTGTGTACATATGTGTATACATTT [XGTACX_site6544] | 8.58 ± 0.26
ATATGTATTAAGTGTACACATATAATGGGTTTGTTA [CACACA_site5682] | 8.91 ± 0.36
TTTTATAAATCTAAACGTATCTAAATGAATAATTAA [GTGCAC_negctrl_site44] | 8.11 ± 0.41
GAAATAATTGTTAAAGGTACACAATGCATATACAAT [XGTACX_site238] | 8.93 ± 0.36
ATAATATATACTAAAAGTACATATTATAATAAATTA [XGTACX_site6749] | 8.09 ± 0.31
AAAATAATAATTAATACATGCATTAATTCTTTTTTT [TGCATGCA_site741] | 8.31 ± 0.38
ACATATGTATGAATATCAAAAAATCCCTATTTAATG [GTGCAC_negctrl_site27] | 8.36 ± 0.37
AGGAAAATAGAAAAAGCACACATATATTTTGGAATG [CACACA_site8080] | 8.72 ± 0.51
ACTTCATTTTTTTTATGTACACAGAAGATTTACAAA [XGTACX_site4021] | 8.96 ± 0.29
ATTTATTTATTTTTTTGTACGAATGTTGCACATATA [XGTACX_site4101] | 8.59 ± 0.49
TATATACATATATATACACACATATATATATTTTAT [CACACA_site3788] | 8.26 ± 0.4
TATATAAATAAATGTGTACACACATTAAAATCAAAC [CACACA_site8733] | 8.77 ± 0.28
CATATATTATTTAATAGTACATATAAAAGAAAAAAA [XGTACX_site4643] | 8.62 ± 0.4
TATATATATATAGACACACACACACCCATATATATA [CACACA_site4117] | 10 ± 0.32
TATAACTATAAAAGTAGTACACATATATATTATATA [XGTACX_site1391] | 8.645 ± 0.021
TTTTTTTAAATATACACACACATTTATACCTATATA [CACACA_site7572] | 8.53 ± 0.5

Sequence | gcPBM binding intensity (ln)
TTCCTAATTGACAACACACACAACAAAAAAGGGATT [CACACA_site1279] | 8.9 ± 0.52
AATGGTTTAAAATACTGTACATATATATAAAAGTAA [XGTACX_site6187] | 8.68 ± 0.38
CACTAAAATAAACACACACACACACCGATATATATA [CACACA_site9379] | 8.69 ± 0.43
TTAATTTTATTTTTTTGTACACATAAATATTATAAA [XGTACX_site4680] | 8.62 ± 0.31
TATATTTATATGATAACACACATAAATTATACATTT [CACACA_site1671] | 8.09 ± 0.4
CTTGTCATTTTGCACACACACATGTATAGGTTATTA [CACACA_site7431] | 9.28 ± 0.21
TAAATATATTAAGCTTGTACATGAAAAAAAAAAAAA [XGTACX_site3264] | 8.63 ± 0.43
AAAAAAAAAAAAAAAACACACAATAAAGTAAAATTT [CACACA_site135] | 8.61 ± 0.31
ATATATAAATTTTAGTGTACATTAATTTTTTTTTTT [XGTACX_site7782] | 8.44 ± 0.4
AGTCTGAATAAAATTACACACATATACATATATATA [CACACA_site1780] | 8.43 ± 0.22
TATGTATATAAATTAACACACATATGTGGTTAATAG [CACACA_site3143] | 8.34 ± 0.23
TACCTTTTTTGTTTTATGCACACCATATAACCAAGG [CACACA_site30] | 8.82 ± 0.23
AAGAAATATTTATACACACACACAAACATATAAATA [CACACA_site6981] | 8.87 ± 0.54
TATAACTATTCACAGACATGCACATAATAACAATAA [TGCATGCA_site207] | 8.98 ± 0.41
TTTTTTTTTCCGTGTTGTACAAAAAAAAAGATTTTG [XGTACX_site3925] | 8.69 ± 0.52
TAAAAAAAAAAAAAAGCATGCTATATTATATTACAC [TGCATGCA_site241] | 8.74 ± 0.32
TATATTTTTTTTGTGCGTACATACCATTTTAATAAT [XGTACX_site2751] | 8.91 ± 0.28
CACAAACAAAAACACACACACACACCCACAAAAATG [CACACA_site2429] | 8.49 ± 0.48
ATTGGGTACAAATACACACACATATAAATATTAATA [CACACA_site7173] | 8.64 ± 0.43
AATTATTGTATGCTATACGTTCCCCTCTAATTTATC [CACACA_negctrl_site1052] | 8.73 ± 0.47
TATTATTTTATGAATACACACATATACGAAAATATT [CACACA_site964] | 8.39 ± 0.44
TATTTTTATATAATGTGTACTTATACCTTATTTTTT [XGTACX_site1658] | 8.58 ± 0.4

Sequence | gcPBM binding intensity (ln)
TTTCCCTACCAAAAATGTACTTATAAGCGTTTTTAT [XGTACX_site739] | 8.61 ± 0.42
AAAAAAAAAAAACACACACACACACTAATACATACA [CACACA_site8135] | 8.59 ± 0.64
TTTTTAAATTATTGCACACAAAAATGAAAGGAAAAA [CACACA_site1455] | 8.84 ± 0.2
CTAAAAATCTTTTGTTGTACTTTTAGATAATCAGGA [XGTACX_site3968] | 8.26 ± 0.48
TACATATTTATATACACACACACCGTCCGTGTTAAA [CACACA_site7413] | 8.47 ± 0.23
AAAGGGATGTTCATTCTTTTTTTTTTTTTTGTATAT [CACACA_negctrl_site511] | 8.12 ± 0.47
AAGTAAAAAAATAGCACACACACAAAAACACAGACA [CACACA_site4839] | 8.94 ± 0.58
AGTGTATTTTTATGTTGTACATGTAATATTTTTGAT [XGTACX_site541] | 8.73 ± 0.33
TAATTCATCATATGCACACACAATACCAAAATGTGC [CACACA_site191] | 8.61 ± 0.33
TACAGATATTCATATAAACACACATACAAATTATGT [CACACA_site7929] | 8.37 ± 0.38
CTTTTTTTTTAAATATCACACACATATAATATATTC [CACACA_site9222] | 8.36 ± 0.45
TATATAATATATTAATGTACGTTATATGTATTCCTT [XGTACX_site6140] | 8.42 ± 0.4
TATGTGGCACAAAAGGGTACATATAATTTATACAGG [XGTACX_site5499] | 8.88 ± 0.43
TGTGTACCGATATTAAGTTTAACGTTATAAAAATAT [CACACA_negctrl_site1547] | 8.55 ± 0.32
AAACAGAATGCATATACACACATACAAAAAAGTGCA [CACACA_site6591] | 8.95 ± 0.45
AAAGGACAAAAAAATGCATGCCGTTAAATTATGTAC [TGCATGCA_site512] | 9.18 ± 0.47
TTTCTAAACCGGTACAGTACATATAAAAATAGAATA [XGTACX_site6662] | 8.78 ± 0.32
GTACAAAAATAAATTGCACACATTTTAATAAAAAAA [CACACA_site2130] | 8.35 ± 0.15
AGATTTAAATATCATACACACTTTATCTATAATACA [CACACA_site6581] | 8.32 ± 0.4
TATATTTATTTATATACACACATATTTATAAATATA [CACACA_site7047] | 8.45 ± 0.41
TAGTTGTTTATAACACGTTGACAGAAATGTTATGTA [GTGCAC_negctrl_site624] | 8.46 ± 0.38
CAAAATTGACATGACGCACACAAGTGTAGATATTTT [CACACA_site1250] | 8.57 ± 0.4

Sequence | gcPBM binding intensity (ln)
TATAAATAATGTTAAACACACATACCGATATATAAC [CACACA_site7306] | 8.65 ± 0.49
AAGCATTTCCATGGTGGTACTATACAAATAATAATT [XGTACX_site6193] | 8.61 ± 0.38
TATTCGTGCAATAATGGTACACTTATAAATTATTCA [XGTACX_site1430] | 8.86 ± 0.28
TATTAAACTAAATGTAGTACATACACAAACGTAATC [XGTACX_site4905] | 8.66 ± 0.35
AAAAAAATTTGTATCACACACGTATTATAAAAAAAT [CACACA_site4182] | 8.49 ± 0.41
ATTTTTTTTTTTAAATGTACATAATATATATATAAT [XGTACX_site2686] | 8.6 ± 0.41
TCTCTCTTATAAAATACACACGAACAATCATATTAT [CACACA_site8065] | 8.54 ± 0.4
CGAACATTATAAATGTCATTTTTTCCAACTTGATCT [GTGCAC_negctrl_site501] | 8.3 ± 0.37
TTCTTTTTTCTTTATGGTACGTGTAATATATATCAA [XGTACX_site7960] | 8.9 ± 0.31
TACATATTTTTTATGTGTACATATTTTTTATGTGTG [XGTACX_site444] | 8.32 ± 0.26
CCCAATAATTAAACAACACACATATATATATGTAAT [CACACA_site3084] | 9.19 ± 0.64
ATAAAATACAGATAAACACACATATAAACACCCATA [CACACA_site5381] | 8.95 ± 0.4
CTTTATTTTTTATACACACACAATATGTATAAATAT [CACACA_site7638] | 8.62 ± 0.37
TTTATAAAATTATTTGCATGTAACAATTATAAATTG [TGCATGCA_site1026] | 8.71 ± 0.34
TTTTTTTTTCTTTCTCTTTAAATATTAATTAAAAAA [GTGCAC_negctrl_site90] | 8.38 ± 0.49
AATGTGAAATATAAATGTACATAAATATATATATAT [XGTACX_site8710] | 9.86 ± 0.17
AAAATATAAATATATTGTACTGTTATATAATAAAAT [XGTACX_site2132] | 8.21 ± 0.33
TAACTATCATGTATTACACACAATATTTATTATAGA [CACACA_site7301] | 8.32 ± 0.39
TAAAAAAAAATAAATACATGCATATAATACATTATA [TGCATGCA_site518] | 8.6 ± 0.2
TAATGAGGAAAAAGTGTGTTAAGATTTTATAATTTA [GTGCAC_negctrl_site608] | 8.15 ± 0.24
TGAACATGTTAAAATAAACACACAGCTAAGGTTTTT [CACACA_site7934] | 8.39 ± 0.48
TATCATATAAATACATGTACATATTTGGAAAATAAT [XGTACX_site5373] | 8.81 ± 0.38
